Screen size: about 45,000 compounds; about 200 (0.44%) were called active. About 7% were inconclusive and are not listed. Calls follow the shape of the dose curve; as a rule, active = well fitted activation curve with a large enough effect; inconclusive = small, poorly fitted or top-dose-only effect; inactive = no such curve, though single readings can be large or run the other way. Some of the results follow.
Test: qHTS of TDP-43 Inhibitors: NCGC Sytravon Library Screen; also: 0% is about no effect; nearly all actives have a fitted effect of over 55% in size
Conditions: yeast TDP-43 toxicity rescue, BacTiter-Glo growth, 24 h; series mostly up to 46.1 µM; growth rescue (activation): at the top concentration
Summary of the method: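 TDP-43-expressing yeast, pregrown in raffinose, seeded at OD600 0.02 in galactose medium with compound for 24 hr at 30 deg C. Growth read by BacTiter-Glo luminescence, so rescue of toxicity appears as activation.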

SMILES	growth rescue (activation)
O=C(COc1ccc2ccccc2c1)Nc1cccc(C(=O)Nc2ccccc2C(=O)O)c1	inactive: -24.7%
CN(Cc1ccccc1)C(=O)C1CCCN(Cc2ccc(Cl)cc2)C1 (configuration not stated)	inactive: 1.13%
C=CCN(CC=C)C(=O)c1c(OC)cccc1OC	inactive: -13.7%
CN(Cc1ccno1)C(=O)CC1C(=O)NCCN1CC(c1ccccc1)c1ccccc1 (configuration not stated)	inactive: 3.48%
CC(=O)Nc1cccc(NS(=O)(=O)c2ccccc2[N+](=O)[O-])c1	inactive: 1.06%
O=C(COC(=O)Cc1ccc(Cl)cc1)Nc1c(F)cccc1F	inactive: 1.59%
CCOC(=O)NC(=O)/C(N=Nc1cccc(C(F)(F)F)c1)=C(\C)O	inactive: 0.148%
COc1ccccc1OCCn1c(COc2cc(C)ccc2C)nc2ccccc21	inactive: 24.6%
COc1cccc(CNC(=O)CNS(=O)(=O)c2ccc3nc(C)sc3c2)c1	inactive: 6.03%
N#Cc1cc2c([nH]c1=S)CCCC2	inactive: 0.808%
Clc1ccccc1Cc1noc(CN2CCN3CCCC3C2)n1 (configuration not stated)	inactive: 6.48%
CCc1nc2c(OCc3ccc(F)c(F)c3)cccn2c1N(C)C(=O)C(C)C	inactive: 8.8%
CCCNC(=O)C1(C)CCN(Cc2ccc(OC)c3ccccc23)C1 (configuration not stated)	inactive: 10.1%
COC(=O)c1ccc(C2/C(=C(\O)c3cccc(OC)c3)C(=O)C(=O)N2CCCN2CCOCC2)cc1 (configuration not stated)	inactive: 0.231%
O=C(CSc1nc2ccccc2c(=O)n1CCCO)N1CCc2ccccc21	inactive: 1.52%
COc1cc(C(=O)NNC(=S)NC(=O)c2ccc(F)cc2)cc(OC)c1OC	inactive: 0.415%
O=C(NCCc1ccccc1C(F)(F)F)C1CCC(=O)N(C2CC2)C1 (configuration not stated)	inactive: 0.0508%
CC(OC(=O)c1ccc([N+](=O)[O-])cc1)C(=O)NCC1CCCCC1 (configuration not stated)	inactive: 4.59%
Cc1ccc(-c2cc(C(=O)N/N=C/c3ccc(F)cc3)n[nH]2)o1	inactive: 28.8%
Cc1ccccc1Nc1nc(N)nc(COC(=O)c2ccco2)n1	inactive: 4.96%
CN(C)c1ccnc2sc3c(SCc4ccc(Cl)cc4)ncnc3c12	inactive: -1.47%
CCOC(=O)N1CCN(C(=O)c2ccc(Cl)nc2)CC1	inactive: 2.99%
O=C(Nc1ccc(Cl)cc1)c1csc(COCCO)n1	inactive: 8.97%
Nc1cccc(CN2CCCC2)c1	inactive: 1.84%

SMILES	growth rescue (activation)
O=C(O)/C=C/C(=O)NCCC(c1ccccc1)c1ccccc1	inactive: -1.62%
COc1cc(CCC(=O)OCC(=O)Nc2ccc3c(c2)OCO3)cc(OC)c1OC	inactive: -4.96%
O=C(CNC(=O)c1ccc2c(c1)OCO2)N/N=C/c1cc(Br)ccc1O	inactive: 6.17%
CN(C)c1ccc(C(=O)Nc2ccc(-c3nc4ccccc4o3)cc2)cc1	inactive: 1.29%
CC(=O)Nc1cc(-c2cccc(C(=O)NCCN(C)C)c2)cn2c(-c3ccc(C(C)=O)cc3)cnc12	inactive: 13.6%
CCOC(=O)c1ccc(-c2ccc(/C=C(\C#N)C(=O)NCc3cccs3)o2)cc1	inactive: -24.3%
CC(C)OP(=O)(c1ccc(N(C)C)cc1)C(O)c1ccc(Br)cc1 (configuration not stated)	inactive: 12.6%
CCCC(=O)n1nc(-c2cccnc2)nc1NCc1ccccc1	inactive: -0.959%
COc1ccc(N2CCN(C(=O)Nc3ccccc3Cl)CC2)cc1	inactive: 23.5%
Nc1ncc(CCN2CCOCC2)c(-c2ccc(F)cc2)n1	inactive: -14.4%
CC1(C(=O)N(CC(=O)NC2CCCC2)Cc2ccccc2)CC(=O)N=C2C=CC=CN21 (configuration not stated)	inactive: -7.81%
Cc1ccc(C(=O)N2N=C(CC(C)C)CC2(O)C(F)(F)F)o1 (configuration not stated)	inactive: 8.09%
O=C(CNC(=O)c1cncc(Br)c1)Nc1ccc(F)c(F)c1F	inactive: 2.73%
O=C(Nc1nc(-c2ccc3c(c2)Cc2ccccc2-3)cs1)c1ccccc1	inactive: 21.7%
Cc1cccc(OCC(=O)N(Cc2ccc(N(C)C)cc2)Cc2ccco2)c1C	inactive: 21.4%
CC(=O)N1N=C(c2ccco2)CC1c1cc2ccc(C)cc2nc1Cl (configuration not stated)	inactive: 13.3%
O=C(c1cc(-c2cccc(O)c2)on1)N1CCCCCC1	inactive: 35%
CCCN(CC1CC1)C(=O)COC(=O)c1ccc(C)cc1O	inactive: 3.74%
CC(=O)c1cc(-c2ccccc2)n(CCC(=O)NC2CCCCC2)c1C	inactive: 9.46%
Cc1cccc(C(=O)NCCCNC(=O)c2ccco2)c1	inactive: 7.33%
CC(CN1CCCCCC1)C(=O)NN (configuration not stated)	inactive: -1.17%
COc1ccc(-n2nc(C(=O)NCC(=O)N3CCN(c4ccccn4)CC3)c3ccccc3c2=O)c(OC)c1	inactive: 25.9%
CC12CN3CC(C)(CN(C1)C3c1cc3ccccc3[nH]1)C2=O (configuration not stated)	inactive: -18.7%
CC1(C)CC(NS(=O)(=O)c2ccc(C(C)(C)C)cc2)CC(C)(C)N1	inactive: 9.24%

SMILES	growth rescue (activation)
Cc1ccc(Cl)cc1NC(=O)C(NS(=O)(=O)c1cccs1)c1ccccc1 (configuration not stated)	inactive: 20.9%
O=C(N/N=C/c1cccnc1)c1cccc(Cl)c1	inactive: -6.34%
COc1cc(N)c(Cl)cc1C(=O)OCC(=O)NCC1CCCO1 (configuration not stated)	inactive: -8.9%
Cc1cc(S(=O)(=O)NC2CCCC2)ccc1-n1cnnn1	inactive: 1.93%
COc1ccc(-c2nnn(CC(=O)NCc3ccc4c(c3)OCO4)n2)cc1OC	inactive: 9.47%
COc1ccc(NC(=O)CN(C)CC(=O)N2CCCCCC2)cc1	inactive: 0.0326%
CN(C)C1N(C(=O)c2ccccc2)N=C2c3ccccc3S(=O)(=O)N21 (configuration not stated)	inactive: 14.8%
CN1CCN(c2ncc(CN3C(=O)c4ccccc4C3=O)s2)CC1	inactive: -4.03%
O=C(c1ccco1)N1N=C(c2ccc(Cl)cc2)CC1(O)C(F)(F)F (configuration not stated)	inactive: 7.92%
Cc1ccc(C(=O)NCCCNC(=O)c2ccco2)cn1	inactive: -2.56%
O=C(COc1ccc(Cl)cc1Cl)NN=C1CCCCC1	inactive: 12.9%
O=C1CN(C(=O)CNC(=O)c2ccc(Cl)cc2Cl)CCN1	inactive: 6.05%
Cc1ccccc1NC(=O)Nc1nc(CN(C)C)cs1	inactive: 4.49%
COc1cccc(C=O)c1OC(=O)N1CCOCC1	inactive: -6.63%
CCNC(=O)C1(C)CCCN1Cc1c(F)cccc1F (configuration not stated)	inactive: 8.95%
COC(=O)c1ccccc1NC(=O)N1CCN(c2ccccc2F)CC1	inactive: 12.1%
COc1c(Cl)cc(Cl)cc1C(=O)Nc1ccc(NC(C)=O)cc1	inactive: 37.5%
O=S(=O)(c1ccc(Cl)c2ccccc12)N1CCCC1	inactive: 14.4%
COc1ccc(-c2nnn(CC(=O)N(CC(=O)NC3CCCC3)c3ccccc3F)n2)cc1OC	inactive: -1.27%
CC(NC(=O)c1ccco1)C(=O)OCC(=O)c1ccc(Cl)s1 (configuration not stated)	inactive: -1.28%
COc1ccc(C)cc1NC(=S)N1CCN(S(C)(=O)=O)CC1	inactive: 13.7%
CCC(C)N1CCN(S(=O)(=O)Cc2ccccc2)CC1 (configuration not stated)	inactive: -10%
COc1ccc(-c2[nH]ncc2CNC(C)CCn2cccn2)c(F)c1 (configuration not stated)	inactive: 4.8%
Clc1ccc(N2CCN(/N=C/c3ccncc3)CC2)cc1	inactive: -2.25%

Source: PubChem BioAssay AID1347073 (National Center for Advancing Translational Sciences (NCATS), 2019)
